Experimental data reported in US20210253718A1, “FRIZZLED5 PROTEIN-BINDING AGENTS” (Modmab Therapeutics Corporation, priority 2016, published 2021).

Columns and labels:
HPAF-II xenograft tumors = assay: Histological staining (Alcian Blue) of HPAF-II xenograft tumors; type: in vivo, mouse; settings: tumors at end of treatment
Experimental: Histological staining: Tumor staining was carried out at the immuno-histopathology and tissue processing lab at the University Health Network. […] An Axio Scan slide scanner system was used to generate high resolution digital images of the whole tumor sections at 40× in brightfield mode, and the images were exported as .png files using ZEN software.

FZD5-Fc = molecular target: T1, FZD5-Fc (Homo sapiens, UniProt Q13467); assay: Surface plasmon resonance analysis of IgG binding to Frizzled-Fc chimera; settings: SPR
T1 construct: The FZD5 portion of FZD5-Fc consists of the extracellular Ala27-Pro167 segment of FZD5; Fc (C); purchased R&D Systems 1617-FZ
T1 sequence (Q13467 27-167): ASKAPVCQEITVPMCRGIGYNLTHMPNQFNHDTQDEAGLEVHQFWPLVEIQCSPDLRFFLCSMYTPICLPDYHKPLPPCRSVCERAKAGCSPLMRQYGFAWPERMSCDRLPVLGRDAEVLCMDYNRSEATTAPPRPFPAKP

FZD8-Fc = molecular target: T2, FZD8-Fc (Homo sapiens, UniProt Q9H461); assay: as above; settings: SPR
T2 construct: segment consists of an extracellular portion of Frizzled which includes the CRD; Fc (C)
T2 sequence (Q9H461 30-151 limits assumed): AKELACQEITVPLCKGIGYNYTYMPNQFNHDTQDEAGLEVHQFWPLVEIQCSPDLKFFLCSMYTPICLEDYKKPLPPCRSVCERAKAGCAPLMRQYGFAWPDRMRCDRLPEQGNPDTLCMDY

HPAF-II mouse xenografts = assay: Subcutaneous HPAF-II xenograft mouse model; type: in vivo; settings: for tumor growth inhibition: intraperitoneal, vs human γ globulin
Experimental: Mouse xenograft studies: CB-17 Fox Chase SCID mice (6 weeks old, female) were purchased from Charles River Laboratories (St. Constant, QC, Canada). The mice were housed in a pathogen-free environment at the animal facility at the University of Toronto. The study was conducted according to the guidelines of the Canadian Council on Animal Care (CCAC) and the animal use protocols approved by the University Animal Care Committee (UACC) at the University of Toronto. The recombinant antibody, IgG-2919, was developed and purified as described above. Human γ globulin was purchased from Jackson ImmunoResearch Laboratories, Inc. (West Grove, Pa., USA), and Dulbecco's phosphate-buffered saline (DPBS, no calcium, no magnesium) was obtained from Thermo Fisher Scientific Inc. (Burlington, ON, Canada). Human γ globulin and D-PBS were used as the experimental controls in this study. HPAF-II cells were inoculated subcutaneously into the flank of the CB-17 SCID mice with 3×10^6 cells in D-PBS per mouse. Tumor volumes were measured using vernier calipers and the mice were weighed twice weekly. Tumor volume was calculated using the formula: ½ (Length×Width^2). When tumors reached approximately 200 mm^3, the mice were randomized into four groups of nine or ten mice each. […] For calculation of percentage of tumor growth inhibition (TGI), groups treated with antibody (Ab test) were compared with group treated with human γ globulin (control). TGI (%) was calculated using the formula: TGI (%)={(mean TVGcontrol−mean TVGAb test)/mean TVGcontrol}×100, where the mean TVG (tumor volume growth)=mean tumor volume at a defined study day−mean tumor volume the day of the first dosing. Statistical significance was examined by Student's t-test (two-tailed). P-values less than 0.05 were considered statistically significant.

[1] = test system: Wnt-beta-catenin target genes AXIN2 and NKD1; assay: RT-qPCR of Wnt-beta-catenin target genes after anti-FZD5 IgG treatment of HPAF-II; type: cell-based, human; settings: 300 nM IgG
Experimental: Reverse transcription and quantitative real-time PCR: After indicated treatments, cells were lysed in Tri-reagent (BioShop Canada #TSS120) and RNA extracted using the manufacturer's protocol. RNA concentration was quantified with Nanodrop1000 (Thermo Scientific) and 2 micrograms of RNA per sample was DNase I treated (ThermoFisher #AM2222). DNase treated RNA was used to make cDNA with High-Capacity cDNA Reverse Transcription Kit (ThermoFisher #4368813). Real-time PCR was performed using Power SYBR Green Master Mix on the 7900HT Fast Real-Time PCR system. Primer pairs are listed below. Analysis was done using the comparative cycle threshold (CT) method (Bookout et al., 2006) with all samples normalized to PPIB (cyclophilin B) expression.

B1: IgG-2919: anti-FZD5 IgG incorporating antibody variable region Fv-2919; light chain SEQ ID NO: 338, heavy chain SEQ ID NO: 340 (antibody)
heavy: EVQLVESGGGLVQPGGSLRLSCAASGFNISYSYIHWVRQAPGKGLEWVASIYSSSGSTSYADSVKGRFTISADTSKNTAYLQMNSLRAEDTAVYYCARGAIDYWGQGTLVTVSS[omitted - human IgG1 constant region]
light: DIQMTQSPSSLSASVGDRVTITCRASQSVSSAVAWYQQKPGKAPKLLIYSASSLYSGVPSRFSGSRSGTDFTLTISSLQPEDFATYYCQQWYSSGHVLITFGQGTKVEIKRTVAAPSVFIFPPSDEQLKSGTASVVCLLNNFYPREAKVQWKVDNALQSGNSQESVTEQDSKDSTYSLSSTLTLSKADYEKHKVYACEVTHQGLSSPVTKSFNRGEC
mucin production (Alcian Blue staining) (HPAF-II xenograft tumors): increased mucin production | affinity (KD), in words (FZD5-Fc; FZD5): sub-nanomolar affinity | Ka (association constant) (FZD5-Fc; FZD5-Fc): 416000 M⁻¹ s⁻¹ | Kd (dissociation constant) (FZD5-Fc; FZD5-Fc): 8.06e-05 s⁻¹ | affinity (KD), in words (FZD8-Fc; FZD8): sub-nanomolar affinity | Ka (association constant) (FZD8-Fc; FZD8-Fc): 533000 M⁻¹ s⁻¹ | Kd (dissociation constant) (FZD8-Fc; FZD8-Fc): 2.28e-05 s⁻¹ | signs of toxicity (HPAF-II mouse xenografts; 1 mg/kg or 2 mg/kg twice weekly): no signs of toxicity | tumor growth inhibition (HPAF-II mouse xenografts; 1 mg/kg twice weekly): 46% | tumor growth inhibition (HPAF-II mouse xenografts; 2 mg/kg twice weekly): 73% | mouse body weights over course of treatment (HPAF-II mouse xenografts; HPAF-II xenograft mice): stable | expression of AXIN2 [1]: suppresses expression | expression of NKD1 [1]: suppresses expression
